These are yes or no findings as the source states them, for the method shown. Some binding calls cover weakened binding; strength is not graded here. Tags and fused reporters may be left off the sequences shown.

Protein sequences, listed by entry. Tags and fused reporters are not part of them.
UniProt Q9C518: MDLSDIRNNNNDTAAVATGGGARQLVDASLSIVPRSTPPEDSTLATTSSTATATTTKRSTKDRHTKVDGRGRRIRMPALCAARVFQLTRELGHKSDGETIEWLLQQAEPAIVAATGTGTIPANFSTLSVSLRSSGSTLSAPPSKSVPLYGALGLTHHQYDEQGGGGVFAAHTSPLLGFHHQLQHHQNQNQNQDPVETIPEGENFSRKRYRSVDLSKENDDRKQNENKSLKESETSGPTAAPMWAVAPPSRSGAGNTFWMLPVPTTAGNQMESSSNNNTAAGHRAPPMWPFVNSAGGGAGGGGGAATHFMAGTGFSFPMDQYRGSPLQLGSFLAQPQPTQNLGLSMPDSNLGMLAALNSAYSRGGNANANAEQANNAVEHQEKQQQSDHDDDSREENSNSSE

This test addresses PRU2 (PHOSPHATE RESPONSE UBIQUITIN E3 LIGASE 2), full length, in the bait vector pGBKT7 (BD) (Arabidopsis thaliana) (UniProt Q6NQG7). Put plainly: two-hybrid; pairwise test: preys in pGADT7 co-transformed with pGBKT7-PRU2 into yeast strain AH109, SD/-Leu/-Trp/-His medium.

For the substance “full-length TCP8 in the vector pGADT7 (AD) (from UniProt Q9C518 1-401)”, the binding entry is “binds”.

For the origin of these results see publication PMC8874776.
